# The list shows a part of the results.
# B1: PX9961V-pdi-562-26-562 (Parabacteroides distasonis) (protein)
# chain: EIFSEITTDNYYQNSNNIYAALVNNYAKAFSTGWSDARYFLQEVTADQLMIPTRGKHGYNGGEYVRLHEHKWTVEENFVYNGWAAPFQGIALCNNTLSDFENLDFSTFKLTEETKNEYIAELRALRVWNYMFLIDFFRHVPIVTDIEEVKAQSTPLEVFNFMESELLAILPDLPKNRGVSRFDQAGVASILVRLYLNAEKWIGISKYDECEQMAQAILDGKYGEYSIDPDYRGPFRSGINGYRSKENIMEFAIKKNYFEASWLYNMWMHYQDRYSLDNDWQGWNGGNLAPSRDLYGNLYQDKLGMPFEKFPDGDIRKKAFRVISNDGDYEGFFLMGTQYKFDYEKGYGFTDEVITGTEEYNGKPLVYVDQVGRFSEGETGLAKGSHVIYGEENTGYRLIKFPWLPQSKDLFQMNSIPEIRLAEIYYSLAECKYRSGDKIGAARLLDVVRKRYYKAEDWSKFSYESNISKLTDDEFVDELGREFIGERHRRIDLIRWNRFSEGAWWDKTPDATNQDVFPIPYRALNANPLLKQTTAGF
# Experiments:
# Assay in all cases: glycan array binding signal (z-score within array); higher = stronger binding
# Details in all cases: glycan notation: IUPAC condensed, linker removed
# [1] = target: Fuc(a1-2)Gal(b1-4)GlcNAc(b1-3)Gal(b1-4)GlcNAc(b1-3)Gal(b1-4)GlcNAc
# Procedure, shortened: (§1)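 Columns mapping to the same glycan were averaged after glycan names were converted to IUPAC-condensed notation. The data come from 3228 arrays in the Consortium for Functional Glycomics database, limited to those with an available protein sequence. Binding is reported as a within-array Z-score averaged across arrays of one protein sequence and across linkers.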
# [2] = target: Fuc(a1-2)Gal(b1-4)GlcNAc(b1-3)GalNAc
# Procedure, shortened: as §1
# [3] = target: Fuc(a1-2)Gal(b1-4)GlcNAc(b1-3)[Fuc(a1-2)Gal(b1-4)GlcNAc(b1-6)]GalNAc
# Procedure, shortened: as §1
# [4] = target: Fuc(a1-2)Gal(b1-4)GlcNAc(b1-3)[Fuc(a1-3)[Gal(b1-4)]GlcNAc(b1-6)]Gal(b1-4)Glc
# Procedure, shortened: as §1
# [5] = target: Fuc(a1-2)Gal(b1-4)GlcNAc(b1-6)GalNAc
# Procedure, shortened: as §1
# [6] = target: Fuc(a1-2)Gal(b1-4)GlcNAc6S
# Procedure, shortened: as §1
# [7] = target: Fuc(a1-2)Gal(b1-4)[Fuc(a1-3)]GlcNAc
# Procedure, shortened: as §1
# [8] = target: Fuc(a1-2)Gal(b1-4)[Fuc(a1-3)]GlcNAc(b1-2)Man(a1-3)[Fuc(a1-2)Gal(b1-4)[Fuc(a1-3)]GlcNAc(b1-2)Man(a1-6)]Man(b1-4)GlcNAc(b1-4)[Fuc(a1-6)]GlcNAc
# Procedure, shortened: as §1
# [9] = target: Fuc(a1-2)Gal(b1-4)[Fuc(a1-3)]GlcNAc(b1-2)[Fuc(a1-2)Gal(b1-4)[Fuc(a1-3)]GlcNAc(b1-4)]Man(a1-3)[Fuc(a1-2)Gal(b1-4)[Fuc(a1-3)]GlcNAc(b1-2)Man(a1-6)]Man(b1-4)GlcNAc(b1-4)GlcNAc
# Procedure, shortened: as §1
# [10] = target: Fuc(a1-2)Gal(b1-4)[Fuc(a1-3)]GlcNAc(b1-3)Gal(b1-4)[Fuc(a1-3)]GlcNAc
# Procedure, shortened: as §1
# [11] = target: Fuc(a1-2)Gal(b1-4)[Fuc(a1-3)]GlcNAc(b1-3)Gal(b1-4)[Fuc(a1-3)]GlcNAc(b1-3)Gal(b1-4)[Fuc(a1-3)]GlcNAc
# Procedure, shortened: as §1
# [12] = target: Fuc(a1-2)Gal(b1-4)[Fuc(a1-3)]GlcNAc(b1-3)GalNAc
# Procedure, shortened: as §1
# [13] = target: Fuc(a1-2)Gal(b1-4)[Fuc(a1-3)]GlcNAc(b1-3)[Neu5Ac(a2-6)Gal(b1-4)GlcNAc(b1-6)]Gal(b1-4)Glc
# Procedure, shortened: as §1
# [14] = target: Fuc(a1-2)Gal3S(b1-4)GlcNAc
# Procedure, shortened: as §1
# [15] = target: Fuc(a1-2)Gal6S(b1-3)GlcNAc
# Procedure, shortened: as §1
# [16] = target: Fuc(a1-2)Gal6S(b1-3)GlcNAc6S
# Procedure, shortened: as §1
# [17] = target: Fuc(a1-2)Gal6S(b1-4)Glc
# Procedure, shortened: as §1
# [18] = target: Fuc(a1-2)Gal6S(b1-4)Glc6S
# Procedure, shortened: as §1
# [19] = target: Fuc(a1-2)[Gal(a1-3)]Gal
# Procedure, shortened: as §1
# [20] = target: Fuc(a1-2)[Gal(a1-3)]Gal(b1-3)GalNAc
# Procedure, shortened: as §1
# [21] = target: Fuc(a1-2)[Gal(a1-3)]Gal(b1-3)GalNAc(b1-3)Gal(a1-4)Gal(b1-4)Glc
# Procedure, shortened: as §1
# [22] = target: Fuc(a1-2)[Gal(a1-3)]Gal(b1-3)GlcNAc
# Procedure, shortened: as §1
# [23] = target: Fuc(a1-2)[Gal(a1-3)]Gal(b1-3)GlcNAc(b1-2)Man(a1-3)[Fuc(a1-2)[Gal(a1-3)]Gal(b1-3)GlcNAc(b1-2)Man(a1-6)]Man(b1-4)GlcNAc(b1-4)GlcNAc
# Procedure, shortened: as §1
# [24] = target: Fuc(a1-2)[Gal(a1-3)]Gal(b1-3)GlcNAc(b1-2)Man(a1-3)[Fuc(a1-2)[Gal(a1-3)]Gal(b1-3)GlcNAc(b1-2)Man(a1-6)]Man(b1-4)GlcNAc(b1-4)[Fuc(a1-6)]GlcNAc
# Procedure, shortened: as §1
# [25] = target: Fuc(a1-2)[Gal(a1-3)]Gal(b1-3)GlcNAc(b1-3)GalNAc
# Procedure, shortened: as §1
# [26] = target: Fuc(a1-2)[Gal(a1-3)]Gal(b1-3)GlcNAc(b1-6)GalNAc
# Procedure, shortened: as §1
# [27] = target: Fuc(a1-2)[Gal(a1-3)]Gal(b1-4)Glc
# Procedure, shortened: as §1
# [28] = target: Fuc(a1-2)[Gal(a1-3)]Gal(b1-4)GlcNAc
# Procedure, shortened: as §1
# [29] = target: Fuc(a1-2)[Gal(a1-3)]Gal(b1-4)GlcNAc(b1-2)Man
# Procedure, shortened: as §1
# [30] = target: Fuc(a1-2)[Gal(a1-3)]Gal(b1-4)GlcNAc(b1-2)Man(a1-3)[Fuc(a1-2)[Gal(a1-3)]Gal(b1-4)GlcNAc(b1-2)Man(a1-6)]Man(b1-4)GlcNAc(b1-4)GlcNAc
# Procedure, shortened: as §1
# [31] = target: Fuc(a1-2)[Gal(a1-3)]Gal(b1-4)GlcNAc(b1-2)Man(a1-3)[Fuc(a1-2)[Gal(a1-3)]Gal(b1-4)GlcNAc(b1-2)Man(a1-6)]Man(b1-4)GlcNAc(b1-4)[Fuc(a1-6)]GlcNAc
# Procedure, shortened: as §1
# [32] = target: Fuc(a1-2)[Gal(a1-3)]Gal(b1-4)GlcNAc(b1-3)GalNAc
# Procedure, shortened: as §1
# [33] = target: Fuc(a1-2)[Gal(a1-3)]Gal(b1-4)GlcNAc(b1-3)[Fuc(a1-2)[Gal(a1-3)]Gal(b1-4)GlcNAc(b1-6)]GalNAc
# Procedure, shortened: as §1
# [34] = target: Fuc(a1-2)[Gal(a1-3)]Gal(b1-4)GlcNAc(b1-6)GalNAc
# Procedure, shortened: as §1
# [35] = target: Fuc(a1-2)[Gal(a1-3)]Gal(b1-4)[Fuc(a1-3)]Glc
# Procedure, shortened: as §1
# [36] = target: Fuc(a1-2)[Gal(a1-3)]Gal(b1-4)[Fuc(a1-3)]GlcNAc
# Procedure, shortened: as §1
# [37] = target: Fuc(a1-2)[Gal(a1-3)]Gal(b1-4)[Fuc(a1-3)]GlcNAc(b1-3)GalNAc
# Procedure, shortened: as §1
# [38] = target: Fuc(a1-2)[Gal(a1-4)]Gal(b1-4)GlcNAc
# Procedure, shortened: as §1
# [39] = target: Fuc(a1-2)[GalNAc(a1-3)]Gal
# Procedure, shortened: as §1
# [40] = target: Fuc(a1-2)[GalNAc(a1-3)]Gal(b1-3)GalNAc(a1-3)[Fuc(a1-2)]Gal(b1-4)GlcNAc
# Procedure, shortened: as §1
# [41] = target: Fuc(a1-2)[GalNAc(a1-3)]Gal(b1-3)GalNAc(b1-3)Gal(a1-4)Gal(b1-4)Glc
# Procedure, shortened: as §1
# [42] = target: Fuc(a1-2)[GalNAc(a1-3)]Gal(b1-3)GlcNAc
# Procedure, shortened: as §1
# [43] = target: Fuc(a1-2)[GalNAc(a1-3)]Gal(b1-3)GlcNAc(b1-2)Man(a1-3)[Fuc(a1-2)[GalNAc(a1-3)]Gal(b1-3)GlcNAc(b1-2)Man(a1-6)]Man(b1-4)GlcNAc(b1-4)GlcNAc
# Procedure, shortened: as §1
# [44] = target: Fuc(a1-2)[GalNAc(a1-3)]Gal(b1-3)GlcNAc(b1-2)Man(a1-3)[Fuc(a1-2)[GalNAc(a1-3)]Gal(b1-3)GlcNAc(b1-2)Man(a1-6)]Man(b1-4)GlcNAc(b1-4)[Fuc(a1-6)]GlcNAc
# Procedure, shortened: as §1
# [45] = target: Fuc(a1-2)[GalNAc(a1-3)]Gal(b1-3)GlcNAc(b1-3)GalNAc
# Procedure, shortened: as §1
binder,measurement,setting,value
B1,glycan array binding signal (z-score),[1],-0.793
same,glycan array binding signal (z-score),[2],0.298
same,glycan array binding signal (z-score),[3],0.07
same,glycan array binding signal (z-score),[4],-0.564
same,glycan array binding signal (z-score),[5],0.625
same,glycan array binding signal (z-score),[6],-0.281
same,glycan array binding signal (z-score),[7],-0.388
same,glycan array binding signal (z-score),[8],-0.343
same,glycan array binding signal (z-score),[9],-0.424
same,glycan array binding signal (z-score),[10],-0.46
same,glycan array binding signal (z-score),[11],-0.163
same,glycan array binding signal (z-score),[12],2.64
same,glycan array binding signal (z-score),[13],-0.55
same,glycan array binding signal (z-score),[14],-0.495
same,glycan array binding signal (z-score),[15],-0.543
same,glycan array binding signal (z-score),[16],0.224
same,glycan array binding signal (z-score),[17],-0.048
same,glycan array binding signal (z-score),[18],-0.487
same,glycan array binding signal (z-score),[19],-0.538
same,glycan array binding signal (z-score),[20],-0.584
same,glycan array binding signal (z-score),[21],-0.226
same,glycan array binding signal (z-score),[22],-0.504
same,glycan array binding signal (z-score),[23],-0.108
same,glycan array binding signal (z-score),[24],0.192
same,glycan array binding signal (z-score),[25],-0.468
same,glycan array binding signal (z-score),[26],-0.074
same,glycan array binding signal (z-score),[27],-0.228
same,glycan array binding signal (z-score),[28],-0.677
same,glycan array binding signal (z-score),[29],-0.182
same,glycan array binding signal (z-score),[30],3.45
same,glycan array binding signal (z-score),[31],-0.281
same,glycan array binding signal (z-score),[32],-0.109
same,glycan array binding signal (z-score),[33],0.087
same,glycan array binding signal (z-score),[34],-0.028
same,glycan array binding signal (z-score),[35],-0.549
same,glycan array binding signal (z-score),[36],-0.538
same,glycan array binding signal (z-score),[37],0.893
same,glycan array binding signal (z-score),[38],0.023
same,glycan array binding signal (z-score),[39],-0.527
same,glycan array binding signal (z-score),[40],-0.718
same,glycan array binding signal (z-score),[41],-0.126
same,glycan array binding signal (z-score),[42],-0.105
same,glycan array binding signal (z-score),[43],-0.21
same,glycan array binding signal (z-score),[44],-0.284
same,glycan array binding signal (z-score),[45],0.721
